Source: PubChem BioAssay AID652104 (National Center for Advancing Translational Sciences (NCATS), 2013)
Screen size: about 410,000 compounds; about 7,200 (1.8%) were called active. The shares of active, inactive and inconclusive entries below differ from those in the screen. The call rests on the fitted dose curve; in most records, active means well fitted activation curve with a large enough effect; inconclusive means small, poorly fitted or top-dose-only effect, or another doubt; inactive means no such curve, though single readings can be large or run the other way. No potency is given beside an inconclusive call; the fits are too rough.

Test: qHTS of TDP-43 Inhibitors; further: nearly all actives have a fitted effect of over 50% in size; on growth rescue (activation): % of control where 0% means no effect
Conditions: TDP-43 expressing yeast growth rescue, BacTiter-Glo, 24 h; growth rescue (activation): at 46.1 µM (top of the series) unless noted
How it was run: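 Luminescence from BacTiter-Glo reports growth of TDP-43-expressing yeast after 24 hr at 30 deg C with compound. Cells were raffinose-pregrown to mid-log, then seeded in galactose medium at OD600=0.02.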
Potency means the concentration at half of the fitted maximal effect; tags describe the fitted curve by direction and shape.

| Compound | growth rescue (activation) | Potency |
| --- | --- | --- |
| Cc1nc(NC(=O)C(C)(C)C)sc1-c1csc(N)n1 | inactive: 13.5% |  |
| CCOc1ccc(Br)cc1C(=S)N1CCCC1 |  | inconclusive [activator, partial curve] |
| Cc1ccc(NC(=O)C2CCCN(C(=O)c3cnn(-c4ccc(F)cc4)c3-n3cccc3)C2)c(Cl)c1 (stereo unspecified) |  | inconclusive [activator, full curve] |
| Cc1cccc(N2CCN(C(=O)COc3ccc4c(c3)CCC4)CC2C)c1 (stereo unspecified) |  | active: 35.5 µM |
| Cc1cc(C)nc(NC(=O)CCC2CCCC2)c1 |  | inconclusive [activator, single point] |
| CCCCN(CC)C(=O)c1nn(C)c2c1CSc1ccccc1-2 |  | inconclusive [activator, partial curve, poor fit] |
| Cc1oc(-c2cccc(Cl)c2)nc1CS(=O)(=O)CC(=O)NC(C)CCc1ccccc1 (stereo unspecified) |  | inconclusive [activator, partial curve, poor fit] |
| Cc1ccc(COc2ccccc2-c2cc(C(=O)N/N=C/c3cccnc3)[nH]n2)cc1 |  | inconclusive [activator, single point] |
| CC(C)NC(=S)N/N=C/c1sc(N2CCCCC2)nc1-c1cccs1 |  | inconclusive [activator, partial curve] |
| COc1ccc(NC(=O)N2CCCc3ccccc32)cc1OC |  | inconclusive [activator, partial curve, poor fit] |
| CCCNC(=O)c1onc(CSc2ccc(F)cc2)c1C(=O)NCC1CC1 |  | inconclusive [activator, partial curve] |
| CCOC(=O)[C@]12CCCC=C1N(CCC1=CCCCC1)C(=O)[C@H](CC(=O)NCCc1ccccc1OC)C2 |  | active: 20 µM |
| Cc1nc2c(Br)cc(Br)cc2c(=O)n1-c1ccccc1NC1OCC(O)C(O)C1O (stereo unspecified) |  | inconclusive [activator, partial curve] |
| CC(C)OCCCNc1ncnc2sc3c(c12)CCCC3 | inactive: 0% |  |
| Nc1ccn(Cc2cccc(F)c2)n1 | inactive: 15.7% |  |
| O=C(COc1ccc([N+](=O)[O-])cc1)N1CCc2ccccc2C1 |  | inconclusive [activator, partial curve] |
| CC(NC(=O)CSC(=S)N(C)C)C12CC3CC(CC(C3)C1)C2 (stereo unspecified) |  | inconclusive [activator, single point] |
| CCOC(=O)C1=C(COC(=O)c2cc(Br)c(Br)s2)NC(=O)NC1C (stereo unspecified) |  | inconclusive [activator, single point] |
| CC(=O)SCC[N+](C)(C)C |  | inconclusive [activator, partial curve] |
| Cc1cc(S(=O)(=O)NCC2CC2)c(Cl)cc1Cl |  | inconclusive [activator, partial curve] |
| Cc1ccc(C)c(C(C)NC(=O)c2ccccc2Br)c1 (stereo unspecified) |  | inconclusive [activator, partial curve] |
| Cc1nn(CC(=O)Nc2ccccn2)c(C)c1Br | inactive: 27.1% |  |
| CC1=C(C)C(=O)N(c2ccccn2)C1=O |  | inconclusive [activator, partial curve] |
| COc1cc(NCc2ccccc2O)c2ncccc2c1 | inactive: -4.13% |  |

| Compound | growth rescue (activation) | Potency |
| --- | --- | --- |
| CN(CCCN1CCCCC1)C(=O)c1cc(COc2ccc(F)cc2F)on1 | inactive: -24.2% |  |
| Cc1cc(NC(=O)CCn2c(=O)c3cccn3c3cccnc32)ccc1Br | inactive: 17.1% |  |
| COC(=O)c1sc(-c2ccc(Cl)cc2)cc1N |  | inconclusive [activator, full curve] |
| CC1CCCC(NC(=O)CSc2nnc(-c3cccnc3)o2)C1C (stereo unspecified) |  | inconclusive [activator, partial curve] |
| Cc1cc(C(=O)CN2C(=O)C(=O)N(CCC3=CCCCC3)C2=O)c(C)n1C | inactive: -24% |  |
| COc1ccc(-c2coc3c(C(=O)Nc4ccc(OC)nc4)cccc23)c(C)c1 |  | active: 35.5 µM |
| Cc1cc(C)cc(N2C(=O)CN(Cc3ccccc3)C2=S)c1 |  | inconclusive [activator, partial curve] |
| COc1ccccc1NC(=O)CSC1=Nc2ccccc2C2=NC(CCC(=O)NCc3ccco3)C(=O)N12 (stereo unspecified) |  | inconclusive [activator, partial curve] |
| Cc1ccc2sc(NNC(=O)c3cc(=O)c4ccccc4o3)nc2c1C |  | inconclusive [activator, full curve] |
| COc1ccc2nc(-c3ccco3)c(-c3ccco3)nc2c1 |  | inconclusive [activator, single point] |
| Cc1ccc(C)c(C(=O)COC(=O)c2cc([N+](=O)[O-])ccc2NCCO)c1 |  | inconclusive [activator, single point] |
| Cc1ccc(-n2ncc3c(NC(C)c4ccccc4)ncnc32)cc1 (stereo unspecified) |  | inconclusive [activator, single point] |
| C[C@H]1CN([C@@H](C)CO)S(=O)(=O)c2ccc(Br)cc2O[C@H]1CN(C)S(=O)(=O)c1ccccc1F | inactive: 10.7% |  |
| CC(=O)c1ccc(N2CCN(CC(=O)Nc3ccc4c(c3)OCCO4)CC2)cc1 |  | inconclusive [activator, single point] |
| O=C(NC(=S)Nc1ccc(F)cc1)c1ccc2c(c1)OCCO2 |  | inconclusive [activator, partial curve] |
| O=C(Nc1cccc(Cl)c1Cl)c1ccco1 |  | inconclusive [activator, partial curve, poor fit] |
| Cn1nnc2c(NCc3ccc(Cl)cc3)ncnc21 |  | active: 11.2 µM |
| COc1cccc(-c2csc(NC(=O)C3CC3)n2)c1 |  | inconclusive [activator, full curve] |
| COc1ccc(-c2nc3ccccc3c(=O)n2N)cc1 |  | inconclusive [activator, single point] |
| O=C(NCc1ccncc1)c1ccccc1Nc1ccc(SC(F)F)cc1 |  | inconclusive [activator, single point] |
| COC(=O)CSC1=C(C#N)C(c2cccc(OC)c2)CC(=O)N1 (stereo unspecified) |  | inconclusive [activator, partial curve] |
| COCCOC(=O)C1=C(C)NC(=O)NC1c1cn(-c2ccccc2)nc1-c1cccs1 (stereo unspecified) | inactive: 1.97% |  |
| COc1cccc(-c2sc3ccc(OC)cc3c2C#CCCO)c1 |  | inconclusive [activator, single point] |
| O=C1OC(c2ccccc2)=CC1=Cc1ccccc1O |  | inconclusive [activator, partial curve] |

| Compound | growth rescue (activation) | Potency |
| --- | --- | --- |
| CCC(C(=O)NCCc1ccccc1)n1nc(C)c2sc3ccccc3c2c1=O (stereo unspecified) |  | inconclusive [activator, full curve, poor fit] |
| Cc1cc(SCCC(=O)O)nc2c(C)cccc12 |  | inconclusive [activator, single point] |
| Brc1ccc2[nH]c3c(c2c1)CCC3 |  | inconclusive [activator, single point] |
| O=C(c1ccccc1F)N1c2ncnn2C2(CCCCC2)[C@@H]2CCCC[C@@H]21 |  | inconclusive [activator, single point] |
| COc1ccc(C(=O)N2C=Cc3ccccc3C2C#N)cc1 (stereo unspecified) |  | active: 15.8 µM |
| Cc1ccc2ccc3ccc(C)nc3c2n1 |  | active: 4.47 µM |
| CCCNc1c(NS(=O)(=O)c2ccc(Br)cc2)c(=O)oc2ccccc12 | inactive: 7.37% |  |
| Cc1nc(N2CCC(C)CC2)c2c(C)c(C(=O)O)sc2n1 |  | inconclusive [activator, single point] |
| CCSc1ncc(Cl)c(C(=O)Nc2nnc(CC)s2)n1 |  | inconclusive [activator, partial curve] |
| Cc1ccc(C(=O)NCCSc2ccc(Cl)cc2)cc1[N+](=O)[O-] |  | inconclusive [activator, single point] |
| O=C1C=C(Nc2ccccc2)c2ccccc2C1=O | inactive: -11.2% |  |
| O=C(OCc1ccc(Br)cc1)c1cccnc1 |  | inconclusive [activator, single point] |
| Cc1cc(C)cc(NC(=O)Cc2csc(C)n2)c1 |  | inconclusive [activator, partial curve, poor fit] |
| Nc1nc(Cl)cc(Sc2ccc3ccccc3c2)n1 |  | inconclusive [activator, full curve] |
| CC1CCc2c(cc(-c3ccccc3)n2-c2ccc(C(=O)NC(C)C)cc2)C1 (stereo unspecified) | inactive: 4.58% |  |
| CCC1CCCCN1S(=O)(=O)c1ccc(NC(=O)c2nc(S(C)(=O)=O)ncc2Cl)cc1 (stereo unspecified) |  | inconclusive [activator, single point] |
| Brc1ccc2nc(C3CCCCC3)c(Cc3ccsc3)n2c1 |  | inconclusive [activator, full curve, poor fit] |
| O=c1c2c(nc(NCCO)n1CC1CCCCC1)-c1ccccc1CC21CCCC1 |  | inconclusive [activator, single point] |
| CCOC(=O)c1ccccc1NC(=O)CN(c1cccc(C)c1C)S(=O)(=O)c1ccccc1 | inactive: 8.48% |  |
| O=C(/C=C1\NC2(CCCC2)Cc2ccccc21)C(=O)N/N=C/c1ccc(O)c(O)c1 |  | inconclusive [activator, single point] |
| CC1Oc2ccccc2N(CC(=O)c2ccc(F)cc2)C1=O (stereo unspecified) |  | inconclusive [activator, partial curve] |
| Cc1sc2nc(-c3cccnc3)nc(Cl)c2c1-c1ccccc1 |  | active: 25.1 µM |
| COc1ccc([C@@H]2CC=C(C(=O)O)[C@H](c3ccc(Cl)cc3)N2S(=O)(=O)c2ccc(Cl)cc2)cc1 |  | inconclusive [activator, partial curve] |
